# Assay results: PubChem BioAssay AID504706 (National Center for Advancing Translational Sciences (NCATS), 2011)
# Screen size: about 320,000 compounds; about 200 (0.062%) were called active. The shares of active, inactive and inconclusive entries below differ from those in the screen. Calls come from the whole dose curve; as a rule, active = well fitted activation curve with a large enough effect; inconclusive = small, poorly fitted or top-dose-only effect; inactive = no such curve, though single readings can be large or run the other way. Potencies of inconclusive entries are left out as doubtful fits.
# Assay: qHTS assay for re-activators of p53 using a Luc reporter; note: nearly all actives have a fitted effect of over 45% in size
# Conditions: H1299 p53-A138V BP100-luciferase reporter, luminescence, 24 h; series mostly up to 92.2 µM
# Summary of the method: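 p53-null H1299 cells stably carrying temperature-sensitive p53-A138V and a BP100-luciferase reporter were pinned with compounds (4-point, 1:5 series) and held 24 hrs at 37 deg C. Luminescence was read 10 min after detection reagent.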
# Potency is the fitted concentration of half-maximal effect; tags give direction and shape of the fitted curve.
row,Structure (SMILES),Potency
1,COc1ccc(-c2cc3ccccc3[nH]2)cc1,"inconclusive [activator, partial curve, poor fit]"
2,c1ccc(OCc2nc3ccccc3[nH]2)cc1,"inconclusive [activator, partial curve, poor fit]"
3,COc1ccccc1C(=O)NC(=O)Nc1cccc(Cl)c1,"inconclusive [activator, full curve, poor fit]"
4,COCCCNc1ncnc2c1[nH]c1ccccc12,"inconclusive [activator, single point]"
5,Nc1cccc2c1C(=O)N(CCOc1ccc(F)cc1)C2=O,"inconclusive [activator, partial curve, poor fit]"
6,CCN1CCN(C(=O)Cn2c(=O)sc3ccccc32)CC1,inactive
7,CCOC(=O)N/N=C\C=C\c1ccc2c(c1)OCO2,"inconclusive [activator, partial curve, poor fit]"
8,O=C(Nc1ccccc1OC(F)F)c1cc2c(s1)CCC2,"inconclusive [activator, partial curve, poor fit]"
9,CCOC(=O)c1cc2c(=O)c3ccccc3oc2nc1C,"inconclusive [activator, full curve, poor fit]"
10,Cc1ccc(Cn2ccnc2C(=O)Nc2ccccc2)cc1,"inconclusive [activator, full curve, poor fit]"
11,Cc1ccc(/C=N/NC(=O)c2ccco2)s1,"inconclusive [activator, partial curve, poor fit]"
12,Cc1ccc(OC(=O)c2ccc(S(=O)(=O)N(C)C)cc2)c(-n2nc3ccccc3n2)c1,"inconclusive [activator, single point]"
13,CC(C)Cc1nc2ccccc2n1CCc1ccccc1,inactive
14,O=[N+]([O-])c1ccc(CSc2nc3ccccc3o2)cc1,"inconclusive [activator, partial curve, poor fit]"
15,Cc1ccc(OCc2nc3ccccc3[nH]2)cc1,"inconclusive [activator, partial curve, poor fit]"
16,CCn1c(-c2ccccc2Cl)nn(CC(=O)Nc2cc(Cl)ccc2Cl)c1=S,inactive
17,COc1ccc(C(=O)[C@H]2[C@H]3C(=O)N(c4ccc(C)cc4)C(=O)[C@H]3C3C=CC=NN32)cc1 (some centres undefined),"inconclusive [activator, partial curve, poor fit]"
18,COc1ccccc1-c1nnc(Nc2nc3c(OC)cccc3s2)o1,"inconclusive [activator, full curve, poor fit]"
19,O=C(NCc1cccs1)Nc1ccc2c(c1)OCO2,"inconclusive [activator, partial curve, poor fit]"
20,N#CC1CC(c2ccccc2)=NN1c1ccccc1[N+](=O)[O-] (centres undefined),inactive
21,CCC(CO)[n+]1c(C)cc(/C=C2\Sc3ccccc3N2Cc2ccccc2)cc1C (centres undefined),inactive
22,COc1ccc2nc(SCC(C)=O)c(C#N)cc2c1,"inconclusive [activator, partial curve, poor fit]"
23,Cc1cccc(Cn2cccc2/C=C2/C(=N)N3C=CSC3=NC2=O)c1,inactive

row,Structure (SMILES),Potency
1,O=C1Cc2cc(S(=O)(=O)N3CCNCC3)ccc2N1,inactive
2,CC(C)(C)C1CCC(=NNC(=S)NCc2ccccc2)CC1 (centres undefined),inactive
3,Cc1ccc(N2C(S)=C(C#N)C(=O)NC2c2cccs2)cc1 (centres undefined),"inconclusive [activator, partial curve, poor fit]"
4,CCCCn1c(SCC(=O)c2ccc(O)c(O)c2)nc2ccsc2c1=O,inactive
5,CS(=O)(=O)N1CCN(c2nc3ccccc3s2)CC1,"inconclusive [activator, single point]"
6,CCC(=O)NC(c1ccccc1OC)c1ccc2cccnc2c1O (centres undefined),"inconclusive [activator, single point]"
7,CCOc1ccccc1Nc1nc2ccccc2[nH]1,"inconclusive [activator, full curve, poor fit]"
8,Cc1cc2nc(-c3ccc(SCC(=O)Nc4nccs4)nc3)[nH]c2cc1C,"inconclusive [activator, full curve, poor fit]"
9,O=C(/C=C/c1cccs1)c1ccc(NC(=O)c2ccccc2F)cc1,"inconclusive [activator, partial curve, poor fit]"
10,CCN(CC)C(=O)c1ccc2nc3ccccc3nc2c1,"inconclusive [activator, partial curve, poor fit]"
11,O=C(c1ccc(N2CCCC2)c([N+](=O)[O-])c1)N1CCc2ccccc2C1,inactive
12,O=C(NCc1ccco1)c1cc(-c2ccco2)on1,"inconclusive [activator, partial curve, poor fit]"
13,COc1ccc2oc(CS(=O)c3ccccc3)c(C(=O)O)c2c1 (centres undefined),"inconclusive [activator, partial curve]"
14,Cc1ccc(CN2CCNC(=O)C2CC(=O)O)cc1 (centres undefined),"inconclusive [activator, single point]"
15,COc1ccc(NC(=O)c2ccco2)cc1N,"inconclusive [activator, partial curve, poor fit]"
16,CCNC(=O)/C(C#N)=C/c1c(N2CCN(c3ccccc3)CC2)nc2c(C)cccn2c1=O,inactive
17,CC(Sc1ccccn1)C(=O)Nc1ccc2c(c1)OCO2 (centres undefined),"inconclusive [activator, partial curve, poor fit]"
18,O=C(Nc1ccc(Cl)cc1)c1ccc(CN2CCc3ccccc3C2)cc1,"inconclusive [activator, partial curve, poor fit]"
19,Clc1ccc2c(c1)C1OCCC1C(c1ccco1)N2 (centres undefined),"inconclusive [activator, partial curve, poor fit]"
20,Cn1c(=O)c(C(=O)COC(=O)c2cc(-c3ccco3)nc3ccccc23)c(N)n(Cc2ccccc2)c1=O,inactive
21,Nc1ccccc1SCc1cn2cccnc2n1,"inconclusive [activator, single point]"
22,O=c1oc2ccccc2cc1-c1cn2ccccc2n1,inactive
23,CC(C)C(=O)NC(c1ccco1)c1ccc2cccnc2c1O (centres undefined),"inconclusive [activator, partial curve, poor fit]"

row,Structure (SMILES),Potency
1,Cc1cc(C)c(NC(=O)c2ccc3c(c2)C(=O)N(Cc2cccnc2)C3=O)c(C)c1,inactive
2,COc1ccccc1NC(=O)CSc1nnc(-c2ccccc2)o1,"inconclusive [activator, full curve, poor fit]"
3,C/C(CC(=O)Nc1ccc(Cl)c(C(F)(F)F)c1)=N\NC(=O)c1cc2ccccc2cc1O,"inconclusive [activator, single point]"
4,CC[C@H](C)C(C(=O)N1CCN(C(=O)OC(C)(C)C)CC1)n1cc(C(CC(C)C)NC(=O)OC(C)(C)C)nn1 (some centres undefined),inactive
5,COc1ccc(C(=O)c2coc3ccc(O)c(CN(C)C)c23)cc1,"inconclusive [activator, single point]"
6,O=C1CCCN1c1ccc(S(=O)(=O)Nc2cccnc2)cc1,inactive
7,CN(C)c1ccc(NC(=S)c2ccc3ccccc3n2)cc1,inactive
8,COC(=O)CNC(=O)Cn1c(=O)n(Cc2ccc(F)cc2)c(=O)c2sccc21,inactive
9,CN(C)c1ccc(-c2cc(O)c3ncccc3c2)cc1,"inconclusive [activator, partial curve, poor fit]"
10,OCc1cn(-c2ccccc2)nc1-c1ccc2c(c1)OCCO2,"inconclusive [activator, partial curve, poor fit]"
11,O=C(CCS(=O)(=O)c1ccccc1)N1CCN(c2ccccc2)CC1,"inconclusive [activator, partial curve, poor fit]"
12,CCCn1nc(C(=O)Oc2ccc3c(C)cc(=O)oc3c2)c2ccccc2c1=O,inactive
13,CCCN(CCC)C(=O)C1CCN(c2ccc(S(=O)(=O)N3CCOCC3)cc2[N+](=O)[O-])CC1,"inconclusive [activator, single point]"
14,O=c1c2c3c(sc2nc2n1CCCC2)CCCCC3,"inconclusive [activator, partial curve, poor fit]"
15,Cc1ccnc(SC2CC(=O)N(c3ccc([N+](=O)[O-])cc3)C2=O)n1 (centres undefined),"inconclusive [activator, single point]"
16,O=C(CCN1C(=O)S/C(=C\c2ccc(Cl)cc2)C1=O)Nc1ccc(C(=O)O)cc1,"inconclusive [activator, single point]"
17,CN1CCN(CC(=O)Nc2ccccc2[N+](=O)[O-])CC1,inactive
18,COc1ccc(OCc2cc(C(=O)NC(C)c3csc(C)n3)no2)c(Cl)c1 (centres undefined),"inconclusive [activator, partial curve, poor fit]"
19,O=C(c1ccco1)N1CCN(C(=O)c2ccc(-c3ccccc3Cl)o2)CC1,"inconclusive [activator, partial curve, poor fit]"
20,Cc1cccnc1Nc1nc(-c2ccccn2)cs1,"inconclusive [activator, full curve, poor fit]"
21,Cc1cc(/C=C2\SC(=S)N(Cc3ccco3)C2=O)c(C)n1-c1ccccc1,"inconclusive [activator, partial curve, poor fit]"
22,CCN(CC)C(=S)NC(=O)c1ccc(F)cc1,inactive
23,O=C(N/N=C\c1cccc(Cl)c1)c1n[nH]c2c1CCCC2,"inconclusive [activator, partial curve, poor fit]"
